Experimental data from the supplement of paper PMC4996465.

How the values were obtained:
[1] = tested on: KB3-1; assay: viability (% of DMSO control); higher = more viable cells
Protocol: (§1)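 Eleven-dose screen of the NCATS MIPE 3 library on cells without co-treatment; CellTiter-Glo after 48 h, as % of DMSO wells.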

[2] = tested on: Nalm-6; assay: as above
Protocol: as §1

SMILES | viability ([1]; 0.00078 µM) | viability ([1]; 0.00234 µM) | viability ([1]; 0.00702 µM) | viability ([1]; 0.0211 µM) | viability ([1]; 0.0632 µM) | viability ([1]; 0.19 µM) | viability ([1]; 0.569 µM) | viability ([1]; 1.71 µM) | viability ([1]; 5.12 µM) | viability ([1]; 15.4 µM) | viability ([1]; 46.1 µM) | viability ([2]; run: 1, 0.00078 µM) | viability ([2]; run: 1, 0.00234 µM) | viability ([2]; run: 1, 0.00702 µM) | viability ([2]; run: 1, 0.0211 µM) | viability ([2]; run: 1, 0.0632 µM) | viability ([2]; run: 1, 0.19 µM) | viability ([2]; run: 1, 0.569 µM) | viability ([2]; run: 1, 1.71 µM) | viability ([2]; run: 1, 5.12 µM) | viability ([2]; run: 1, 15.4 µM) | viability ([2]; run: 1, 46.1 µM) | viability ([2]; run: 2, 0.00078 µM) | viability ([2]; run: 2, 0.00234 µM) | viability ([2]; run: 2, 0.00702 µM) | viability ([2]; run: 2, 0.0211 µM) | viability ([2]; run: 2, 0.0632 µM) | viability ([2]; run: 2, 0.19 µM) | viability ([2]; run: 2, 0.569 µM) | viability ([2]; run: 2, 1.71 µM) | viability ([2]; run: 2, 5.12 µM) | viability ([2]; run: 2, 15.4 µM) | viability ([2]; run: 2, 46.1 µM)
CC(=O)OCCN1C(=O)c2c(C)nc3ccc(S(=O)(=O)N4CCOCC4)cc3c2C1=O [Ivachtin] | 106% | 108% | 102% | 105% | 112% | 111% | 114% | 109% | 104% | 101% | 105% | 118% | 120% | 120% | 118% | 125% | 116% | 115% | 113% | 110% | 104% | 101% | 110% | 114% | 110% | 113% | 109% | 113% | 105% | 106% | 104% | 104% | 107%
CN([C@@H](Cc1ccc(OS(=O)(=O)c2cccc3cnccc23)cc1)C(=O)N1CCN(c2ccccc2)CC1)S(=O)(=O)c1cccc2cnccc12 [KN-62] | 89.2% | 91.6% | 91.7% | 89.2% | 87.3% | 95.6% | 89.6% | 97.1% | 97.5% | 94.2% | 85.2% | 91.9% | 103% | 108% | 103% | 97.3% | 110% | 104% | 110% | 105% | 101% | 81.9% | 98.5% | 107% | 103% | 103% | 112% | 104% | 103% | 105% | 107% | 112% | 91.7%
N#Cc1ccc(C(c2ccc(C#N)cc2)n2cncn2)cc1 [Letrozole] | 109% | 106% | 105% | 109% | 107% | 107% | 108% | 109% | 105% | 103% | 103% | 112% | 118% | 118% | 123% | 130% | 117% | 121% | 112% | 111% | 106% | 95.8% | 101% | 105% | 106% | 107% | 107% | 101% | 103% | 101% | 99.6% | 96.1% | 80.7%

Viability of KB3-1 and Nalm-6 cells after 48 h of drug alone (CellTiter-Glo), 11 doses over about 4.5 log units. % of DMSO wells, lower = more cell loss; AC50 from the fitted curve, lower = more potent. No active / inactive call. Nalm-6 was screened in two runs. AC50 is listed only for well-fitted inhibitory curves. KB3-1 is a HeLa-derived carcinoma line, Nalm-6 a B-cell precursor leukaemia line.
